# Measurements published in a collection of fitness landscapes (doi:10.1126/science.1257360).
# The list shows a part of the results.
# B1: PhoQ; a variant is named by its letters at X, in order, P23837 (parent)
# chain: MKKLLRLFFPLSLRVRFLLATAAVVLVLSLAYGMVALIGYSVSFDKTTFRLLRGESNLFYTLAKWENNKLHVELPENIDKQSPTMTLIYDENGQLLWAQRDVPWLMKMIQPDWLKSNGFHEIEADVNDTSLLLSGDHSIQQQLQEVREDDDDAEMTHSVAVNVYPATSRMPKLTIVVVDTIPVELKSSYMVWSWFIYVLSANLLLVIPLLWVAAWWSLRPIEALAKEVRELEEHNRELLNPATTRELTSLVRNLNRLLKSERERYDKYRTTLTDLTHSLKTPLXXLQXXLRSLRSEKMSVSDAEPVMLEQISRISQQIGYYLHRASMRGGTLLSRELHPVAPLLDNLTSALNKVYQRKGVNISLDISPEISFVGEQNDFVEVMGNVLDNACKYCLEFVEISARQTDEHLYIVVEDDGPGIPLSKREVIFDRGQRVDTLRPGQGVGLAVAREITEQYEGKIVAGESMLGGARMEVIFGRQHSAPKDE
# Variants of: B1
# Experiment: enrichment ratio after two sorts for PhoP signalling (ratio (wild type AVST 3.29)); higher = more functional
# Details: with PhoP (E. coli)
row,Variant,enrichment ratio
1,APRS,≤ 0.25
2,KMSN,≤ 0.25
3,AMKR,≤ 0.25
4,CHFY,≤ 0.25
5,VGQC,≤ 0.25
6,YRVL,≤ 0.25
7,YGCD,≤ 0.25
8,KVQC,≤ 0.25
9,KTYW,≤ 0.25
10,GLCS,4.59
11,THHP,≤ 0.25
12,ISDD,≤ 0.25
13,VHYA,≤ 0.25
14,WVYR,≤ 0.25
15,HRGY,≤ 0.25
16,VQRH,≤ 0.25
17,LAIH,≤ 0.25
18,SYDC,≤ 0.25
19,LQIG,≤ 0.25
20,HMCA,≤ 0.25
21,QLYC,≤ 0.25
22,QAAC,≤ 0.25
23,DAMH,≤ 0.25
24,YAFS,≤ 0.25
25,ESHC,≤ 0.25
26,RHMG,≤ 0.25

row,Variant,enrichment ratio
1,DGLS,≤ 0.25
2,VDEV,≤ 0.25
3,YLCM,0.441
4,HFHN,≤ 0.25
5,NFHE,≤ 0.25
6,VSWA,≤ 0.25
7,QVGH,15.9
8,LHDV,≤ 0.25
9,DNCP,≤ 0.25
10,YTLC,11.3
11,KPKN,≤ 0.25
12,DTMY,≤ 0.25
13,FETY,≤ 0.25
14,TNAG,5.74
15,QHGV,≤ 0.25
16,NRPI,≤ 0.25
17,LWLR,≤ 0.25
18,MEWF,≤ 0.25
19,EYHM,≤ 0.25
20,FADL,≤ 0.25
21,SSFV,1.16
22,VRFH,≤ 0.25
23,YQGM,≤ 0.25
24,KKSH,≤ 0.25
25,WFAR,≤ 0.25
26,SAYF,≤ 0.25

row,Variant,enrichment ratio
1,RQRC,≤ 0.25
2,SPFG,≤ 0.25
3,MCAL,13.5
4,FLCW,≤ 0.25
5,IDFG,≤ 0.25
6,NVVP,≤ 0.25
7,VPLW,≤ 0.25
8,VQDM,≤ 0.25
9,FYEI,≤ 0.25
10,GTCW,≤ 0.25
11,VLPQ,≤ 0.25
12,SPNN,≤ 0.25
13,DVSP,≤ 0.25
14,GLPY,≤ 0.25
15,RHHK,≤ 0.25
16,PSIE,≤ 0.25
17,GFMH,≤ 0.25
18,MCHN,≤ 0.25
19,KGID,≤ 0.25
20,YEPA,≤ 0.25
21,RCLQ,≤ 0.25
22,HNDH,≤ 0.25
23,IVLM,5.53
24,QSEH,≤ 0.25
25,MPST,≤ 0.25
26,PYQW,≤ 0.25

row,Variant,enrichment ratio
1,FRRM,≤ 0.25
2,PRMQ,≤ 0.25
3,NLLN,≤ 0.25
4,KPMY,≤ 0.25
5,VKHI,≤ 0.25
6,AAMA,≤ 0.25
7,RCAP,≤ 0.25
8,TPIV,≤ 0.25
9,KMTC,≤ 0.25
10,WAEW,≤ 0.25
11,YDYC,≤ 0.25
12,TYGI,≤ 0.25
13,STKM,≤ 0.25
14,PVTT,≤ 0.25
15,YIIN,≤ 0.25
16,TNTH,1.01
17,RYDL,≤ 0.25
18,EQMT,≤ 0.25
19,ETWP,≤ 0.25
20,MCMH,≤ 0.25
21,KSCI,≤ 0.25
22,ENVI,≤ 0.25
23,TSTQ,16
24,QCKS,≤ 0.25
25,AFWD,≤ 0.25
26,WHPC,≤ 0.25

row,Variant,enrichment ratio
1,QEPN,≤ 0.25
2,YKAS,≤ 0.25
3,TQSH,3.13
4,LWCW,≤ 0.25
5,HTMQ,≤ 0.25
6,QQSC,1.63
7,PFLG,≤ 0.25
8,MEHS,≤ 0.25
9,AIDC,≤ 0.25
10,ARAI,≤ 0.25
11,TLNY,≤ 0.25
12,YVNT,≤ 0.25
13,IGYG,≤ 0.25
14,RANC,≤ 0.25
15,FLAI,≤ 0.25
16,PKSD,≤ 0.25
17,LLNV,≤ 0.25
18,KFNN,≤ 0.25
19,LWAG,≤ 0.25
20,ETHF,≤ 0.25
21,LQVW,≤ 0.25
22,DIQR,≤ 0.25
23,MCVN,≤ 0.25
24,RANH,≤ 0.25
25,WPDH,≤ 0.25
26,RHCA,≤ 0.25

row,Variant,enrichment ratio
1,TPTH,≤ 0.25
2,THHY,≤ 0.25
3,SYVN,≤ 0.25
4,KQNP,≤ 0.25
5,SIIN,0.251
6,MRMF,1.22
7,EKGY,≤ 0.25
8,PRQQ,≤ 0.25
9,HYSV,≤ 0.25
10,PEWT,≤ 0.25
11,QEAV,≤ 0.25
12,KVDT,≤ 0.25
13,TNDM,2.26
14,TRQY,≤ 0.25
15,IALK,≤ 0.25
16,ARTP,≤ 0.25
17,YSND,≤ 0.25
18,FREI,≤ 0.25
19,FWHM,≤ 0.25
20,YSCE,≤ 0.25
21,PYQV,≤ 0.25
22,EIAM,≤ 0.25
23,DAMT,≤ 0.25
